B1: Q9UKT9 (peptide)
chain: FKCDVCGAWFTQKGNLLRHIKL
B2: Q9UKT9 (peptide)
chain: FDCEICGADFTQKGNLLRHIKL
B3: Q9UKT9 (peptide)
chain: FHCSVCGHEFTQKGNLLRHIKL
B4: Q9UKT9 (peptide)
chain: FRCDICGALFTQKGNLLRHIKL
B5: Q9UKT9 (peptide)
chain: FACPQCGAIFTQKGNLLRHIKL
B6: Q9UKT9 (peptide)
chain: FHCDQCGAFFTQKGNLLRHIKL
B7: Q9UKT9 (peptide)
chain: FCCNQCGRGFTQKGNLLRHIKL
B8: Q9UKT9 (peptide)
chain: FACPVCGAGFTQKGNLLRHIKL
B9: Q9UKT9 (peptide)
chain: FVCPICGATFTQKGNLLRHIKL
B10: Q9UKT9 (peptide)
chain: FWCPICGAQFTQKGNLLRHIKL
B11: Q9UKT9 (peptide)
chain: FQCSVCGHDFTQKGNLLRHIKL
B12: Q9UKT9 (peptide)
chain: FDCPQCGAQFTQKGNLLRHIKL
B13: Q9UKT9 (peptide)
chain: FDCNICGAQFTQKGNLLRHIKL
B14: Q9UKT9 (peptide)
chain: FFCNQCGRCFTQKGNLLRHIKL
B15: Q9UKT9 (peptide)
chain: FVCNVCGAFFTQKGNLLRHIKL
B16: Q9UKT9 (peptide)
chain: FQCPVCGAKFTQKGNLLRHIKL
B17: Q9UKT9 (peptide)
chain: FDCPICGAQFTQKGNLLRHIKL
B18: Q9UKT9 (peptide)
chain: FWCPICGADFTQKGNLLRHIKL
B19: Q9UKT9 (peptide)
chain: FECEICGHTFTQKGNLLRHIKL
B20: Q9UKT9 (peptide)
chain: FCCPICGRFFTQKGNLLRHIKL
B21: Q9UKT9 (peptide)
chain: FFCEVCGADFTQKGNLLRHIKL
B22: Q9UKT9 (peptide)
chain: LICEICGFMCTQKGNLLRHIKL
B23: Q9UKT9 (peptide)
chain: FWCPICGHDFTQKGNLLRHIKL
B24: Q9UKT9 (peptide)
chain: FNCPICGHKFTQKGNLLRHIKL
B25: Q9UKT9 (peptide)
chain: LQCPICGFQCTQKGNLLRHIKL
B26: Q9UKT9 (peptide)
chain: FHCDVCGAVFTQKGNLLRHIKL
B27: Q9UKT9 (peptide)
chain: FLCPVCGAEFTQKGNLLRHIKL
B28: Q9UKT9 (peptide)
chain: FLCNQCGHSFTQKGNLLRHIKL
B29: Q9UKT9 (peptide)
chain: FDCPVCGAEFTQKGNLLRHIKL
B30: Q9UKT9 (peptide)
chain: FECPVCGAHFTQKGNLLRHIKL
B31: Q9UKT9 (peptide)
chain: FDCNQCGRMFTQKGNLLRHIKL
B32: Q9UKT9 (peptide)
chain: FYCNQCGHIFTQKGNLLRHIKL
B33: Q9UKT9 (peptide)
chain: LCCEICGFICTQKGNLLRHIKL
B34: Q9UKT9 (peptide)
chain: FTCSVCGHMFTQKGNLLRHIKL
B35: Q9UKT9 (peptide)
chain: FKCPQCGAWFTQKGNLLRHIKL
B36: Q9UKT9 (peptide)
chain: FVCEQCGANFTQKGNLLRHIKL
B37: Q9UKT9 (peptide)
chain: LYCEICGFGCTQKGNLLRHIKL
B38: Q9UKT9 (peptide)
chain: FTCEICGAMFTQKGNLLRHIKL
B39: Q9UKT9 (peptide)
chain: FMCEICGHYFTQKGNLLRHIKL
B40: Q9UKT9 (peptide)
chain: FDCPICGHAFTQKGNLLRHIKL
B41: Q9UKT9 (peptide)
chain: FHCPVCGAFFTQKGNLLRHIKL
B42: Q9UKT9 (peptide)
chain: LFCPICGFYCTQKGNLLRHIKL
B43: Q9UKT9 (peptide)
chain: FICPICGHSFTQKGNLLRHIKL
B44: Q9UKT9 (peptide)
chain: FHCNQCGHRFTQKGNLLRHIKL
B45: Q9UKT9 (peptide)
chain: FHCSVCGHQFTQKGNLLRHIKL
B46: Q9UKT9 (peptide)
chain: FTCPICGRVFTQKGNLLRHIKL
B47: Q9UKT9 (peptide)
chain: FLCEQCGAGFTQKGNLLRHIKL
B48: Q9UKT9 (peptide)
chain: FLCPICGAHFTQKGNLLRHIKL
B49: Q9UKT9 (peptide)
chain: FYCNVCGAFFTQKGNLLRHIKL
B50: Q9UKT9 (peptide)
chain: FRCNQCGRQFTQKGNLLRHIKL

The list shows a part of the results.
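Further: jurkat cells carrying a lentiviral library of mutant zinc finger degrons fused to EGFP plus mCherry, mCherry+ cells FACS sorted, degron abundance counted by next-generation sequencing.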

In the experiment the target is no compound (DMSO). The experiment is described as follows: log2 fold change of degron read counts, EGFP-low vs EGFP+ sorted cells; higher = lower degron-EGFP level without compound (poor expression or instability). As to conditions: compound: DMSO control; 18 h.
Consider B1, for which the “log2 fold change of degron read counts” value was -1.03.
As for B2, the “log2 fold change of degron read counts” value is -0.992.
The same measure for B3: -0.97; for B4: -0.618.
The same measure for B5: -0.541; for B6: -0.953; for B7: -0.526.
As to B8, the “log2 fold change of degron read counts” value is -0.0932.
With B9 the figure was -0.325; with B10, -0.0378; with B11, -1.26.
Consider B12, for which the “log2 fold change of degron read counts” value is -0.889.
Turning to B13, the “log2 fold change of degron read counts” value is -0.948.
The same measure for B14: 0.541.
In the case of B15, the “log2 fold change of degron read counts” value turned out to be 0.155.
With B16 the figure was -0.629; with B17, -1.01; with B18, 0.305.
For the sequence B19, the “log2 fold change of degron read counts” value was -1.83.
The same measure for B20: 1.03; for B21: -2.37.
With B22 the figure was 0.385; with B23, 0.715; with B24, -0.528.
The same measure for B25: 0.289.
For the sequence B26, the “log2 fold change of degron read counts” value is -0.995.
For B27, the “log2 fold change of degron read counts” value is -0.764.
For B28, the “log2 fold change of degron read counts” value is -0.417.
With B29 the figure was -2.01.
For the sequence B30, the “log2 fold change of degron read counts” value is -0.0373.
The same measure for B31: 0.74.
For B32, the “log2 fold change of degron read counts” value is 0.922.
The same measure for B33: 0.744; for B34: -0.182; for B35: 0.115.
Turning to B36, the “log2 fold change of degron read counts” value is -2.17.
B37: the “log2 fold change of degron read counts” value worked out at 0.505.
With B38 the figure was -1.11; with B39, -0.726.
Consider B40, for which the “log2 fold change of degron read counts” value was -1.27.
The same measure for B41: 0.314; for B42: 2.07.
As to B43, the “log2 fold change of degron read counts” value was -0.329.
Consider B44, for which the “log2 fold change of degron read counts” value stood at 0.518.
With B45 the figure was -0.163; with B46, -0.417; with B47, -1.83.
For B48, the “log2 fold change of degron read counts” value turned out to be 0.00311.
The same measure for B49: 0.892; for B50: -0.148.
